Data published in PubChem BioAssay AID602310 (National Center for Advancing Translational Sciences (NCATS), 2012).
In all, about 410,000 compounds went through this assay and about 310 (0.076%) were called active. This list was built around the results that the source calls inconclusive (neither active nor inactive); the mix of calls is not that of the screen. The call rests on the fitted dose curve; in most records, active means well fitted curve in the direction sought with a large enough effect; inconclusive means small, poorly fitted or top-dose-only effect; inactive means flat fitted curve, though single readings scatter. Potencies beside an inconclusive call are fits to weak or partial responses and may not hold up.

Biological target: DNA dC->dU-editing enzyme APOBEC-3G (Homo sapiens) (UniProt Q9HC16)
Assay: qHTS for Inhibitors of Vif-A3G Interactions: qHTS; further: nearly all actives have a fitted effect of over 60% in size;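 on activity, negative = active: hits raise eYFP signal because A3G escapes Vif-driven loss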
Settings: HeLa A3G-eYFP + Vif (tagged APOBEC3G with the HIV-1 protein that degrades it), YFP fluorescence, overnight; series mostly up to 46.1 µM; activity, negative = active: at the top concentration
How it was run: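 HeLa cells stably expressing Vif and C-terminally eYFP-tagged A3G, seeded overnight at 37 deg C, then exposed to compound by pintool overnight at 37 deg C. Rise in yellow fluorescence (Ex 488/Em 500-530, Acumen) marks blocked Vif-driven A3G degradation.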
On the % scale 0 is the no-effect control and ±100 the full control effect; potency means the concentration at half of the fitted maximal effect; tags describe the fitted curve by direction and shape.

Chain of UniProt Q9HC16 (Q9HC16 whole entry, looked up): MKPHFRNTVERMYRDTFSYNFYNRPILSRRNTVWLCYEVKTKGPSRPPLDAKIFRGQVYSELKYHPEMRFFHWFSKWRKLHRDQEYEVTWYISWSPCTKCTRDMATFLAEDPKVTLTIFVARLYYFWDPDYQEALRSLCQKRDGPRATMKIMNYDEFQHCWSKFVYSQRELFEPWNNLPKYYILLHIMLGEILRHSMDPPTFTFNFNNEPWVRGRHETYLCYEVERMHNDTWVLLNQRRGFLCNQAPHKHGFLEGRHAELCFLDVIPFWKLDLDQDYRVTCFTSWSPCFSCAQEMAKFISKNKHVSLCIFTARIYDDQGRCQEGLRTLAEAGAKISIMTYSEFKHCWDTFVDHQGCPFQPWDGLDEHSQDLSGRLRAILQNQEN

Compound | Potency | activity, negative = active
Cc1cc(NS(=O)(=O)c2ccc(NC(=S)NC(=O)/C=C/c3ccccc3)cc2)no1 | inconclusive: 22.4 µM [inhibitor, single point] | –
CC(=O)Nc1cccc(-c2ccnc3c2CC(C)(C(=O)NCc2cccs2)O3)c1 (configuration not stated) | inconclusive: 1.26 µM [inhibitor, full curve, poor fit] | –
COc1ccc(/C=N\NC(=O)c2ccccc2F)cc1COc1ccc(F)cc1F | inconclusive: 1.12 µM [inhibitor, full curve, poor fit] | –
O=C(NN1CCOCC1)c1cccc2ccccc12 | – | inactive: -0.419%
O=C1C=C(C#Cc2ccccc2)C[C@@H](c2ccc(F)cc2)C1 | inconclusive: 35.5 µM [inhibitor, single point] | –
CC(=O)c1sc(C(C)(C)C)cc1NC(=O)/C=C/C(=O)O | – | inactive: -22.2%
Nc1ccccc1SC(C[N+](=O)[O-])c1ccccc1 (configuration not stated) | inconclusive: 25.1 µM [inhibitor, single point] | –
O=C1Nc2c(Br)cc(Br)cc2C1(O)N1CCOCC1 (configuration not stated) | inconclusive: 28.2 µM [inhibitor, single point] | –
COCc1cc(C)nc2sc3c(c12)NC(c1ccc(O)cc1)N(c1ccc(OC)cc1)C3=O (configuration not stated) | inconclusive: 10 µM [inhibitor, partial curve, poor fit] | –
CC(=O)c1cccc(-c2ccnc3c2CC(C(=O)NCCC(F)(F)F)O3)c1 (configuration not stated) | inconclusive: 7.08 µM [inhibitor, partial curve, poor fit] | –
CCCNC(=O)C1CCN(S(=O)(=O)c2ccc3c(c2)CCCN3C(C)=O)CC1 | – | inactive: 0.119%
CC1CCCN(Cc2c(O)ccc3c(=O)c(-c4nc5ccccc5s4)c(N)oc23)C1 (configuration not stated) | – | inactive: -12.3%
Cc1c(N2C(=O)/C(=C/c3ccc(N(C)C)cc3)N(C)C2=S)c(=O)n(-c2ccccc2)n1C | inconclusive: 12.6 µM [inhibitor, partial curve, poor fit] | –
COc1ccccc1CNc1ncnc2c1cnn2-c1ccccc1 | inconclusive: 35.5 µM [inhibitor, partial curve, poor fit] | –
CCCCC1=CC2=CC(=O)C(C)(OC(=O)CC)C(=O)C2=CO1 (configuration not stated) | – | inactive: 0.111%
COc1cc(C2c3cc4c(cc3C(OC3OC5COC(c6cccs6)OC5C(O)C3O)C3COC(=O)C23)OCO4)cc(OC)c1O (configuration not stated) | inconclusive: 10 µM [inhibitor, partial curve] | –
CCSc1ccc(-c2cc(NC=O)c3ncc(-c4cccc(C(=O)N(C)C)c4)n3c2)cc1 | inconclusive: 12.6 µM [inhibitor, single point] | –
COc1cccc(C(=O)Nc2ccc3c(cc2=O)[C@@H](NC(C)=O)CCc2cc(OC)c(OC)c(OC)c2-3)c1 | inconclusive: 2.82 µM [inhibitor, partial curve, poor fit] | –
CS(=O)(=O)n1nc(OC(=O)c2cccc3ccccc23)cc1N | inconclusive: 35.5 µM [inhibitor, partial curve, poor fit] | –
O=C(c1ccc(-n2c(SCc3cccc(F)c3)nc3ccccc3c2=O)cc1)N1CCOCC1 | – | inactive: -0.957%
NC(=O)c1ccccc1N=Cc1ccc2ccccc2c1 | inconclusive: 35.5 µM [inhibitor, single point] | –

Compound | Potency | activity, negative = active
Cc1cccc(N=Cc2[nH]c3ccc(Br)c(Cl)c3c2O)c1 | inconclusive: 22.4 µM [inhibitor, single point] | –
Cc1ccc(CNC(=O)Cn2cc(C(=O)c3ccc(F)cc3)c(=O)c3ccc(C)nc32)cc1 | – | inactive: -1.73%
CC(C)N1CCc2c(sc(NC(=O)c3cc(-c4cccs4)nc4ccccc34)c2C(N)=O)C1 | active: 7.08 µM | –
CCOC(=O)CSC1=C(C#N)C(c2ccccc2OC)CC(=O)N1 (configuration not stated) | inconclusive: 7.08 µM [inhibitor, partial curve] | –
COc1ccc(-c2ccc(CCC(=O)O)n2-c2ccccc2OC)cc1 | inconclusive: 8.91 µM [inhibitor, partial curve] | –
O=C(Oc1c(CN2CCOCC2)cc(Cl)c2cccnc12)c1ccccc1F | inconclusive: 25.1 µM [inhibitor, single point] | –
O=C(NCc1ccc(OC(F)(F)F)cc1)c1cccc2c1C(=O)c1ccc(N3CCCCC3)cc1S2(=O)=O | inconclusive: 2.51 µM [inhibitor, partial curve, poor fit] | –
Cc1cccc(C)c1-n1ncc(C(=O)N2CCN(c3ccccn3)CC2)c1C1CCN(C(=O)OC(C)(C)C)CC1 | – | inactive: -2.51%
O=C(NCCc1ccccc1)C(=O)N/N=C/c1ccc2c(c1)OCO2 | inconclusive: 3.55 µM [inhibitor, single point] | –
COc1ccc2o/c(=N/NC(=O)c3cccs3)c(C(N)=O)cc2c1 | active: 11.2 µM | –
Cc1cccc(/C=N/NC(=O)c2cc(Br)ccc2OCc2ccccc2)n1 | inconclusive: 35.5 µM [inhibitor, single point] | –
CC1=NN(C(N)=S)C(=O)C1N=Nc1ccc(Cl)cc1Cl (configuration not stated) | – | inactive: 1.32%
Cc1ccccc1CN1CCCC(C(=O)Nc2ccc(-c3ccn[nH]3)cc2)C1 (configuration not stated) | inconclusive: 25.1 µM [inhibitor, single point] | –
Cc1ccc(C)c2c1NC(C(=O)O)C1CC=CC21 (configuration not stated) | – | inactive: -3.37%
COc1ccc(-c2cc(C(=O)NCc3ccc(F)cc3)c3c(-c4ccc(F)cc4)[nH]nc3n2)cc1OC | – | inactive: -17.3%
CCOc1ccc(/C=N/NC(=O)c2cc3c(OC)cccc3[nH]2)cc1 | inconclusive: 15.8 µM [inhibitor, partial curve, poor fit] | –
COc1ccc(CNC(=O)CCC(=O)Nc2ccc(Cl)cc2)cc1 | – | inactive: 4.2%
CCOC(=O)C(=Cc1ccc(-n2cncn2)cc1)C(=O)OCC | inconclusive: 11.2 µM [inhibitor, partial curve, poor fit] | –
Cc1c(-c2cc(Br)ccc2O)nc2cc3c(cc2c1C)OCO3 | inconclusive: 35.5 µM [inhibitor, single point] | –
CCCCN1C(=O)C2(NNc3ccccc3O2)c2ccccc21 (configuration not stated) | inconclusive: 35.5 µM [inhibitor, single point] | –
O=c1c2ccccc2n(Cc2cccc(F)c2)c(=O)n1Cc1ccccc1Cl | – | inactive: 3.61%
